# Experimental data reported in PubChem BioAssay (Tox21).
# Where “and” joins values, the source holds several entries; their conditions need not be identical. Identical values can stand only once. This list was built around the results that the source calls inconclusive (neither active nor inactive); the mix of calls is not that of the screen. For some of these results: A potency beside an inconclusive call is a rough fit, not a confirmed value. More than one record can exist for a structure, and the calls need not agree. Calls of active or inactive are those of the source. Unless noted, calls follow the shape of the dose curve; as a rule, active = well fitted curve in the direction sought with a large enough effect in the repeat runs; inconclusive = weak or mixed curves; inactive = no such curve, though single readings can be large; an effect the other way counts as inactive or inconclusive.
# Assays:
# [1] = molecular target: Estrogen receptor beta (Homo sapiens) (UniProt Q92731); assay: qHTS assay to identify small molecule antagonists of the estrogen receptor beta (ER-beta) signaling pathway (AID 1259378; active = well fitted inhibition curve with a large enough effect in the signal ratio in the repeat runs, not every such curve was filed as active; inconclusive = weak or mixed curves, or effect the other way; inactive = no such curve, though single readings can be large or run the other way; the % refers to the signal ratio; also: potency is read from the fitted curve at half-maximal effect; as to activity, negative = inhibition: % is scaled to controls: 0 for no effect and ±100 for the full control effect); settings: ER-beta-UAS-bla HEK293T, beta-lactamase FRET ratio, 16 h
# Chain of UniProt Q92731 (Q92731 whole entry, looked up): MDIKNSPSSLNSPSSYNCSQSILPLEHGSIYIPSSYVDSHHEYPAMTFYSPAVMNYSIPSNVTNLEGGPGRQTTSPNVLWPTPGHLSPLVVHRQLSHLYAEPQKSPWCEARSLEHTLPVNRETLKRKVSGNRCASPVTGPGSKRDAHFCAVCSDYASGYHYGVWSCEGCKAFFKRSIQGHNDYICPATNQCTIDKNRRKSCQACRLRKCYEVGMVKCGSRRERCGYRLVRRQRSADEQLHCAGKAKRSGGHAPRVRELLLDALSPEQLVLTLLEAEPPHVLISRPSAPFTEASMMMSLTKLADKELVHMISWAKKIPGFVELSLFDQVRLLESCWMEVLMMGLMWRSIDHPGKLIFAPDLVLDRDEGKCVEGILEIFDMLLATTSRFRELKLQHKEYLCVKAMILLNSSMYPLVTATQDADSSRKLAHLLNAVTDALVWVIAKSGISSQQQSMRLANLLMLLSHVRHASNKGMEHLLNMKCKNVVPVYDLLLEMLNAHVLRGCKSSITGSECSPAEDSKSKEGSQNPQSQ
# Summary of the method: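 ER-beta-UAS-bla HEK293T (GripTite) cells in 2% charcoal-stripped FBS medium were preincubated 6 hr at 37C, dosed with compound, then stimulated with 1 nM E2 (final) for 16 hr; beta-lactamase reporter read by B/G FRET fluorescence after 2 hr substrate loading.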
# [2] = qHTS assay to identify small molecule agonists of the androgen receptor (AR) signaling pathway in the presence of an antagonist - cell viability counter screen (AID 1259379); also: potency is read from the fitted curve at half-maximal effect; nearly all actives have a fitted effect of over 25% in size
# Summary of the method: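 MDA-kb2 viability measured by CellTiter-Fluor fluorescence in the same wells as the luciferase signal; nilutamide 3.0uM final; 15-point compound titration; 16 hr at 37C.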
# [3] = qHTS assay to identify small molecule agonists of the estrogen receptor beta (ER-beta) signaling pathway - cell viability counter screen (AID 1259380); also: potency is read from the fitted curve at half-maximal effect; nearly all actives have a fitted effect of over 30% in size
# Summary of the method: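 Measured: luminescence from CellTiter-Glo after 30 min at room temperature, added to wells already read for the LiveBLAzer FRET reporter (2 hr substrate); ER-beta-UAS-bla HEK293T cells had 16 hr compound treatment at 37C, 5% CO2.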
# [4] = molecular target: Progesterone receptor (Homo sapiens) (UniProt P06401); assay: qHTS assay to identify small molecule antagonists of the progesterone receptor (PR) signaling pathway (AID 1346795; active = well fitted inhibition curve with a large enough effect in the signal ratio in the repeat runs, not every such curve was filed as active; inconclusive = weak or mixed curves; the % refers to the signal ratio; also: potency is read from the fitted curve at half-maximal effect; as to activity change, negative = inhibition: % is scaled to controls: 0 for no effect and ±100 for the full control effect); settings: PR-UAS-bla HEK293T, beta-lactamase FRET ratio, 16 h; activity change, negative = inhibition: at 92.4 µM (top of the series) unless noted
# Chain of UniProt P06401 (P06401 whole entry, looked up): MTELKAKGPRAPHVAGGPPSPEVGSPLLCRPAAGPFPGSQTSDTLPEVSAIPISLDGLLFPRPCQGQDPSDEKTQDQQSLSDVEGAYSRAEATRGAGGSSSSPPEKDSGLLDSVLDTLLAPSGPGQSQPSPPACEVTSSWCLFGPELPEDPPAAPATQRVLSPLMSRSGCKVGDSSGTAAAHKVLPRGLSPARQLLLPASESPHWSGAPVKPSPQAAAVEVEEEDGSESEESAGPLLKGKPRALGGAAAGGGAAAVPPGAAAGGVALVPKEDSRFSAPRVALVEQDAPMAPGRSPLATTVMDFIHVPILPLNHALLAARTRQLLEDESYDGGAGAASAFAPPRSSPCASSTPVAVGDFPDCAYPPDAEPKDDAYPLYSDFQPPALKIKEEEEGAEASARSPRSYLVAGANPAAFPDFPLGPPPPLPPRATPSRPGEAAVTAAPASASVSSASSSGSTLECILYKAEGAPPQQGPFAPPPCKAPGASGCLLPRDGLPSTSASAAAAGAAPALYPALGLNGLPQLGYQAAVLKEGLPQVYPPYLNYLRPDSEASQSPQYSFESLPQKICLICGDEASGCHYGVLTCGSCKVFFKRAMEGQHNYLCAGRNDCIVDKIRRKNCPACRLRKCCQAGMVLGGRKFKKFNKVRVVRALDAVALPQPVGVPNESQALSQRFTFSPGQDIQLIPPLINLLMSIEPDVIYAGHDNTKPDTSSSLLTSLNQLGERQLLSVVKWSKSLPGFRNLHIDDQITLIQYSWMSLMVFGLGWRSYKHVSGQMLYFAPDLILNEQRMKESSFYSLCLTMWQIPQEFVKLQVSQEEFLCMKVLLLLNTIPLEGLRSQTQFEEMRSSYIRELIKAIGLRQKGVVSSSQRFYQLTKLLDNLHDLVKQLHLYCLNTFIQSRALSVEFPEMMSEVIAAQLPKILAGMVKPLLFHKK
# Summary of the method: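 Stimulus R5020 at 1 nM final; cells HEK293T PR-UAS-bla; medium with 2% charcoal-stripped FBS; compound exposure 16 hr at 37C, 5% CO2; detection by FRET beta-lactamase substrate, 2 hr, room temperature.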
# [5] = qHTS assay to identify small molecule antagonists of the progesterone receptor (PR) signaling pathway - cell viability counter screen (AID 1346798); also: potency is read from the fitted curve at half-maximal effect; nearly all actives have a fitted effect of over 50% in size
# Summary of the method: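 In the same plates used for the beta-lactamase readout, cell viability of compound- and R5020-treated PR-UAS-bla HEK293T cells (16 hr, 37C) was assessed by CellTiter-Glo luminescence.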
# [6] = qHTS assay to identify small molecule agonists of the progesterone receptor (PR) signaling pathway - cell viability counter screen (AID 1346799; calls by dose curve; also: nearly all actives have a fitted effect of over 45% in size; also: potency is read from the fitted curve at half-maximal effect)
# Summary of the method: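 Multiplexed viability read: CellTiter-Glo luminescence, 30 min RT, following LiveBLAzer FRET measurement on PR-UAS-bla HEK293T cells exposed to compounds 16 hr.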
# [7] = qHTS assay to identify small molecule antagonists of the TGF-beta/Smad signaling pathway - cell viability counter screen (AID 1346824); also: potency is read from the fitted curve at half-maximal effect; nearly all actives have a fitted effect of over 50% in size
# Summary of the method: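 SBE-bla HEK 293T cells were plated overnight at 37 C, then given compounds in DMSO plus TGF-beta1 (added as 0.25 ng/mL solution) for 5 hr. After the bla read, CellTiter-Glo was added to the same wells and luminescence read after 30 min at room temperature.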
# [8] = qHTS assay to identify small molecule agonists of the TGF-beta/Smad signaling pathway - cell viability counter screen (AID 1346829); also: potency is read from the fitted curve at half-maximal effect; nearly all actives have a fitted effect of over 45% in size
# Summary of the method: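 Here the cytotoxicity of library compounds is measured in SBE-bla HEK 293T cells treated for 5 hr, using CellTiter-Glo added to wells already read for the beta-lactamase reporter.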
# [9] = qHTS assay to identify small molecule antagonists of the TGF-beta/Smad signaling pathway (AID 1346924; active = well fitted inhibition curve with a large enough effect in the signal ratio in the repeat runs, not every such curve was filed as active; inconclusive = weak or mixed curves; the % refers to the signal ratio; also: potency is read from the fitted curve at half-maximal effect); settings: SBE-bla HEK293T, TGF-beta/Smad reporter, beta-lactamase ratio; activity, negative = inhibition: at 76.8 µM (top of the series) unless noted
# Summary of the method: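 Read-out was FRET-substrate fluorescence (405 nm excitation; 460 and 530 nm emission) after 2 h at room temperature. Before that, cells carrying a Smad-binding-element beta-lactamase reporter in HEK 293T had been stimulated 5 h at 37 C with TGF-beta1 (0.25 ng/mL addition solution) in the presence of test compound.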
# [10] = molecular target: Thyrotropin receptor (Homo sapiens) (UniProt P16473); assay: qHTS assay to identify small molecule antagonists of the thyroid stimulating hormone receptor (TSHR) signaling pathway (AID 1259385; calls by dose curve; also: potency is read from the fitted curve at half-maximal effect; nearly all actives have a fitted effect of over 20% in size); settings: TSHR-HEK293 cAMP HTRF, TSH-stimulated antagonist mode; activity change, negative = inhibition: at 92.4 µM (top of the series) unless noted
# Chain of UniProt P16473 (P16473 whole entry, looked up): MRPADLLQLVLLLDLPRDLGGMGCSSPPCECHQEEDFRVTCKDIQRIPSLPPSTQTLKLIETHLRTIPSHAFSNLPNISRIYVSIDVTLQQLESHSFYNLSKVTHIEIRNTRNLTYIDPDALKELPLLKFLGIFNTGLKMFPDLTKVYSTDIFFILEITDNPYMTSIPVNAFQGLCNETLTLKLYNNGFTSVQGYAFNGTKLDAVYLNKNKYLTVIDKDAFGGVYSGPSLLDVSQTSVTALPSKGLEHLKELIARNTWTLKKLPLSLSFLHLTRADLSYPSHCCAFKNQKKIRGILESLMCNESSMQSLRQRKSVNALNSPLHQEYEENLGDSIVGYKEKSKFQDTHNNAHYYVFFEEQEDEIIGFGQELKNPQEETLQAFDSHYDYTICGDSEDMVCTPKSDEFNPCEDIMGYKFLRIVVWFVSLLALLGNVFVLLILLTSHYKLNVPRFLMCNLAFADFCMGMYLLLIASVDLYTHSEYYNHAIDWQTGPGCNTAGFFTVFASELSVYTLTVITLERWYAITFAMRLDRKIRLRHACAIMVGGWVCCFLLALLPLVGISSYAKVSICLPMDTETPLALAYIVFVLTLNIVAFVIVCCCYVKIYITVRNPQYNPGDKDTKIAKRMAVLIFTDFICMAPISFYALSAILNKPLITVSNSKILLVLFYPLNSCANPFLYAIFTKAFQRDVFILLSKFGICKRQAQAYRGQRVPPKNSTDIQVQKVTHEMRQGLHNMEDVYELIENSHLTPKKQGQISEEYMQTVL
# Summary of the method: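 TSHR-HEK293 cells were plated and held 18 h at 37C/5% CO2, then given compound plus Ro20-1724 and stimulated with TSH at 1.5 ng/mL final. After 30 min at room temperature, cAMP was detected with cAMP-d2/anti-cAMP-cryptate (1 h) by fluorescence.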
# [11] = molecular target: Progesterone receptor (Homo sapiens) (UniProt P06401); assay: qHTS assay to identify small molecule agonists of the progesterone receptor (PR) signaling pathway (AID 1346784; calls by dose curve; also: % is scaled to controls: 0 for no effect and ±100 for the full control effect; nearly all actives have a fitted effect of over 30% in size); settings: PR-UAS-bla HEK293T, beta-lactamase FRET ratio, 16 h; activation: at 92.4 µM (top of the series) unless noted
# Summary of the method: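 Reporter assay, GripTite PR-UAS-bla HEK 293T cells: 16 hr exposure to DMSO-dissolved compounds at 37C, 5% CO2, in steroid-depleted (2% charcoal-stripped FBS) medium; beta-lactamase measured by FRET fluorescence.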
# [12] = qHTS assay to identify small molecule agonists of the TGF-beta/Smad signaling pathway (AID 1346859; active = well fitted activation curve with a large enough effect in the signal ratio in the repeat runs, not every such curve was filed as active; inconclusive = weak or mixed curves; the % refers to the signal ratio; also: potency is read from the fitted curve at half-maximal effect); settings: SBE-bla HEK293T, TGF-beta/Smad beta-lactamase reporter, 5 h; activation: at 76.8 µM (top of the series) unless noted
# Summary of the method: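 Screening used HEK 293T SBE-bla cells at 4,000/well. Test agents: 5 hr, 37 C. Detection: FRET substrate, 2 hr RT, then excitation 405 nm with emissions at 460 and 530 nm.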
# [13] = molecular target: Thyrotropin-releasing hormone receptor (Homo sapiens) (UniProt P34981); assay: qHTS assay to identify small molecule antagonists of the thyrotropin-releasing hormone receptor (TRHR) signaling pathway (AID 1346877; active = well fitted inhibition curve with a large enough effect in the repeat runs, not every such curve was filed as active; inconclusive = weak or mixed curves; also: potency is read from the fitted curve at half-maximal effect)
# Chain of UniProt P34981 (P34981 whole entry, looked up): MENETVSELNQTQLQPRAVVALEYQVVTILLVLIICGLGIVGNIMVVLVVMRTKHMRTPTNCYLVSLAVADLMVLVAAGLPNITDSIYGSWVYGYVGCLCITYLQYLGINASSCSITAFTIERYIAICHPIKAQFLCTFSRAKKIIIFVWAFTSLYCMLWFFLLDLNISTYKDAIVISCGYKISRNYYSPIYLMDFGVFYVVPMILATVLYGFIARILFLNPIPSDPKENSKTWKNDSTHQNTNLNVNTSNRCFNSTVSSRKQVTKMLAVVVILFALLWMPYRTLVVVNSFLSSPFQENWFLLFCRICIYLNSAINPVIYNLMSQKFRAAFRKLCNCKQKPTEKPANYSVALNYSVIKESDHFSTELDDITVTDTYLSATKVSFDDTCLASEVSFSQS
# Summary of the method: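 Overnight-plated (18 h, 37 °C) HEK293 cells expressing TRHR were dye-loaded 2 h, treated with compound, then stimulated with TRH at 1 nM final. Fluorescence intensity was captured every second for 3 min.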
# [14] = molecular target: Thyrotropin-releasing hormone receptor (Homo sapiens) (UniProt P34981); assay: qHTS assay to identify small molecule agonists of the thyrotropin-releasing hormone receptor (TRHR) signaling pathway (AID 1346891; calls by dose curve; also: potency is read from the fitted curve at half-maximal effect)
# Summary of the method: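 Readout was intracellular calcium fluorescence in TRHR-Hek293 cells. Cells were incubated 18 h, dye-loaded 2 h at 37 °C, and treated with compound in agonist mode.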
# [15] = qHTS assay to identify small molecule antagonists of the estrogen receptor beta (ER-beta) signaling pathway - cell viability counter screen (AID 1259382); also: potency is read from the fitted curve at half-maximal effect; nearly all actives have a fitted effect of over 55% in size
# Summary of the method: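 Readout: luminescence, CellTiter-Glo, same wells as bla assay. System: ER-beta-UAS-bla GripTite HEK293T, 2% charcoal-stripped FBS. Exposure: compounds plus 1nM 17-beta-estradiol, 16 hr, 37C.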
# [16] = qHTS assay to identify small molecule agonists of the estrogen receptor alpha (ER-alpha) signaling pathway in the presence of an antagonist - cell viability counter screen (AID 1259386);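 also: potency is read from the fitted curve at half-maximal effect; cells exposed to compounds for 22 h at 37 °C before the viability read; nearly all actives have a fitted effect of over 30% in size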
# Summary of the method: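 The test measures whether compounds kill ER-alpha reporter cells (VM7Luc4E2) under antagonist co-treatment (ICI-182,780, 10.0nM). Fluorescence from CellTiter-Fluor is read after a 22hr exposure.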
# [17] = activity, negative = inhibition: at 92.4 µM (top of the series) unless noted
# Tags tell the direction and shape of the fitted curve or compound fluorescence and quenching.
compound,measurement,setting,value
O=[Se](O)O,Potency,[1]; [17],inactive
same,Potency,[2],"active: 8.64 µM and inconclusive: 3.3 µM [cytotoxic, full curve, poor fit]"
same,Potency,[3],"inconclusive: 68.7 µM [cytotoxic, single point]"
same,Potency,[4],"inconclusive: 2.34 µM [falling, full curve]"
same,Potency,[5],"inconclusive: 1.47 µM [rising, full curve]"
same,Potency,[6],"inconclusive: 4.66 µM [rising, full curve]"
same,Potency,[7],active: 2.46 µM
same,Potency,[8],active: 2.19 µM
same,Potency,[9],"inconclusive: 3.09 µM [rising, full curve]"
O=C1CCCCCCCCCCC1,"activity, negative = inhibition",[1]; [17],inconclusive: 9.53%
same,"activity, negative = inhibition",[1]; at 92.4 µM (top of the series),inactive: 0.159%
same,"activity, negative = inhibition",[9],inconclusive: 0.903%
Nc1nc(N)nc(-c2ccccc2)n1,"activity, negative = inhibition",[1]; [17],inconclusive: 3.57%
same,"activity, negative = inhibition",[1]; at 92.4 µM (top of the series),inactive: -15.3%
same,Potency,[6],inactive
C1CCC(C(CC2CCCCN2)C2CCCCC2)CC1 (configuration not stated),Potency,[1]; [17],active: 18.8 µM
same,Potency,[2],active: 29.8 µM
same,Potency,[3],active: 23.7 µM
same,Potency,[10],active: 33.5 µM
same,Potency,[11],inactive
same,Potency,[4],active: 29.8 µM
same,Potency,[5],active: 26.6 µM
same,Potency,[6],active: 23.7 µM
same,Potency,[12],"inconclusive: 30.1 µM [falling, single point]"
same,Potency,[13],"inconclusive: 16.5 µM [inhibitor, single point]"
same,Potency,[14],"inconclusive: 16.9 µM [activator, single point]"
CN1C[C@H](C(=O)N[C@]2(C)O[C@@]3(O)[C@@H]4CCCN4C(=O)[C@H](Cc4ccccc4)N3C2=O)C[C@@H]2c3cccc4[nH]cc(c34)C[C@H]21,Potency,[1]; [17],"inconclusive: 23.7 µM [rising, partial curve, poor fit]"
same,Potency,[2],"inconclusive: 26.6 µM [cytotoxic, partial curve]"
same,Potency,[3],"inconclusive: 33.5 µM [cytotoxic, partial curve]"
same,Potency,[15],"inconclusive: 26.6 µM [cytotoxic, partial curve]"
same,Potency,[10],active: 11.9 µM
same,Potency,[16],"inconclusive: 21.1 µM [cytotoxic, partial curve]"
same,"activity change, negative = inhibition",[4],inconclusive: -39.9% [at 42.5 µM]
same,Potency,[5],"inconclusive: 33.5 µM [cytotoxic, single point]"
same,Potency,[6],"inconclusive: 4.73 µM [cytotoxic, single point]"
same,Potency,[12],"inconclusive: 6.01 µM [rising, partial curve]"
same,"activity, negative = inhibition",[9],inconclusive: 2.12% [at 35.3 µM]
